{
  "source": "ChEMBL document CHEMBL4888484",
  "about": "“Replenishing the malaria drug discovery pipeline: Screening and hit evaluation of the MMV Hit Generation Library 1 (HGL1) against asexual blood stage Plasmodium falciparum ,using a nano luciferase reporter read-out” (2022)",
  "note": "Screen size: about 150,000 compounds; about 540 (0.36%) showed an effect of 50% or more. The list shows a part of the results.",
  "data": [
    {"test_system": "Plasmodium falciparum", "assay": "Primary screen in NF54 nanoGlo assay, in single point, at 2uM, 72h; a lower Z score goes with more inhibition", "format": "functional, Erythrocyte", "conditions": "timepoint 72 hour", "units": {"% Inhibition": "%"}, "values": [
      {"smiles": "CC(C)CN1CCCn2nc(CNC(=O)[C@H](C)Oc3ccccc3)cc2C1", "% Inhibition": -11, "Z score": 2.27},
      {"smiles": "N[C@H]1CC[C@@H](n2ccnc2-c2ccc3cccc(Cl)c3n2)CC1", "% Inhibition": 6, "Z score": -0.85},
      {"smiles": "Nc1c2c(-c3ccccc3Cl)nc(NC3CC3)nc2nn1-c1ccccc1", "% Inhibition": -17, "Z score": 1.62},
      {"smiles": "OC(COCc1ccccc1)CN1CCCC1c1nnc2ccccn12", "note": "(stereo unspecified)", "% Inhibition": -6, "Z score": 0.55},
      {"smiles": "Cc1cccc(CC2(NC(=O)CC3CCN(C)CC3)CC2)c1", "% Inhibition": -1, "Z score": 0.14},
      {"smiles": "Cc1ccc(CCC(=O)N2CC[C@H](O)C23CCCC3)cc1", "% Inhibition": -5, "Z score": 0.77},
      {"smiles": "O=C(Cn1c(-c2ccco2)nn(-c2ccc(Cl)cc2)c1=O)NC1CC1", "% Inhibition": -7, "Z score": 0.61},
      {"smiles": "CC(CS(C)(=O)=O)N(C)C(=O)NC(Cc1ccccc1)C1CC1", "note": "(stereo unspecified)", "% Inhibition": 11, "Z score": -2.04},
      {"smiles": "Cc1cc(Cl)ccc1S(=O)(=O)Nc1cc(N2CCNC2=O)ccc1F", "% Inhibition": 4, "Z score": -0.34},
      {"smiles": "O=C(CS(=O)(=O)CC1CCCCC1)Nc1ccc2c(c1)OCCCO2", "% Inhibition": 7, "Z score": -0.88},
      {"smiles": "COCC(=O)N1CCC(Oc2ccc(C)nn2)CC1", "% Inhibition": -16, "Z score": 3.06},
      {"smiles": "Clc1cc2c(c(CN3CCC(Cc4ccccc4)CC3)c1)OCOC2", "% Inhibition": -1, "Z score": 0.13},
      {"smiles": "O=C(C[C@H]1CCOC1)N1CCC12CCC2", "% Inhibition": 8, "Z score": -0.88},
      {"smiles": "CN(c1ncccc1C#N)C1CN(c2ccc3nncn3n2)C1", "% Inhibition": -10, "Z score": 1.44},
      {"smiles": "O=C(c1ccccc1F)N1CCc2oncc2C1", "% Inhibition": -3, "Z score": 0.42},
      {"smiles": "Cc1ccc(NS(=O)(=O)c2cc(C(=O)NC3CCCCCC3)ccc2Cl)cc1C", "% Inhibition": -13, "Z score": 1.44},
      {"smiles": "Cc1nc[nH]c1-c1nnc(N2CCN(c3ccccc3)CC2)n1C", "% Inhibition": -4, "Z score": 0.66},
      {"smiles": "CCc1nc(CC)n(CC(=O)Nc2ccc(C(C)=O)cc2)n1", "% Inhibition": 33, "Z score": -3.75},
      {"smiles": "Cc1csc(NC(=O)[C@@H]2CCC[C@@H](NCc3cccnc3)CN(C)C(=O)C2)n1", "% Inhibition": -2, "Z score": 0.23},
      {"smiles": "Cn1ccnc1C1CC(NC(=O)c2cc3c(s2)CCC3)CCO1", "note": "(stereo unspecified)", "% Inhibition": 30, "Z score": -4.4},
      {"smiles": "Cc1cc(F)ccc1C(=O)NCc1cc2n(n1)CCN(S(C)(=O)=O)C2", "% Inhibition": -3, "Z score": 0.65},
      {"smiles": "Cc1ccc(CN2CCC[C@H]2C(=O)O)c2cccnc12", "% Inhibition": -13, "Z score": 1.64},
      {"smiles": "CCCCN1CCN(C(=O)c2cccc(-c3nccs3)c2)CC1=O", "% Inhibition": -6, "Z score": 0.72},
      {"smiles": "CN(C)C(=O)N(CCN1CCCCC1)[C@H]1CCN(C(=O)c2ccc(Br)o2)C1", "% Inhibition": -3, "Z score": 0.61},
      {"smiles": "Cn1cc(C2CCN(C(=O)c3cnn4cccnc34)CC2)cn1", "% Inhibition": -4, "Z score": 0.6},
      {"smiles": "Cc1ccc(NC(=O)[C@H](C)ON=C(N)c2ccc(OCc3ccccc3)cc2)c(F)c1", "% Inhibition": 0, "Z score": 0.03},
      {"smiles": "O=C1NCCN1CCn1ccc(NC(=O)N2CCC(F)(F)C2)n1", "% Inhibition": 3, "Z score": -0.63},
      {"smiles": "COc1ccccc1C(=O)Nc1ccc(C2OC(=O)N(Cc3ccc(F)cc3)C2C(=O)Nc2ccc(F)cc2)cc1", "note": "(stereo unspecified)", "% Inhibition": -10, "Z score": 1.44},
      {"smiles": "COc1ccc(C(=O)Nc2cccnc2)nn1", "% Inhibition": -11, "Z score": 1.2},
      {"smiles": "CC1=C[C@@H](CNC(=O)c2ccc(F)cc2)[C@H](C(C)C)C[C@H]1Cc1nnc(-c2ccncc2)o1", "% Inhibition": 26, "Z score": -2.98},
      {"smiles": "O=C(C1=COCCO1)N1CCC[C@H](c2nc(-c3ccccc3)c[nH]2)C1", "% Inhibition": -7, "Z score": 0.92},
      {"smiles": "Cc1ccc2c(c1)[nH]c(=O)c1c(C(=O)NCc3cccc(Cl)c3)nnn12", "% Inhibition": 0, "Z score": 0.09},
      {"smiles": "O=C1COC(=O)N1C1CN(S(=O)(=O)c2cccnc2)C1", "% Inhibition": 0, "Z score": -0.04},
      {"smiles": "c1ccc(C2(c3nnc([C@@H]4CCCO4)o3)CCOCC2)cc1", "% Inhibition": 3, "Z score": -0.52},
      {"smiles": "COc1ccc(C(=O)Nc2cc(-c3ccccn3)no2)c(C)c1", "% Inhibition": -15, "Z score": 2.58},
      {"smiles": "O=C(c1cc(-c2ccc(F)cc2)n[nH]1)N1CC(OCC(F)(F)F)C1", "% Inhibition": -13, "Z score": 2.08},
      {"smiles": "O=C(NCCc1cccnc1)c1ccn(CC(F)F)n1", "% Inhibition": 0, "Z score": 0.01},
      {"smiles": "Cc1cccc(C)c1[C@@H]1CCCN1C(=O)Nc1ccc(F)c(-n2nnnc2C)c1", "% Inhibition": -1, "Z score": 0.06},
      {"smiles": "CC(C)N1C[C@H]2CN(S(=O)(=O)c3ccc(F)c(F)c3)C[C@@]2(C(=O)N2CCCC2)C1", "% Inhibition": 2, "Z score": -0.27},
      {"smiles": "CC(=O)N1C[C@H]2CN(C(=O)c3cccc(C)c3)C[C@@]2(C(=O)N2CCCC2)C1", "% Inhibition": -5, "Z score": 0.72},
      {"smiles": "CCc1ccccc1NC(=O)c1cc2n(n1)CCCC2", "% Inhibition": -2, "Z score": 0.32},
      {"smiles": "CN1C[C@H]2CN(Cc3c[nH]c4ccccc34)CCN2C1=O", "% Inhibition": 19, "Z score": -2.24},
      {"smiles": "CC(CNc1ccccc1)NC(=O)NCC1CCCO1", "note": "(stereo unspecified)", "% Inhibition": -14, "Z score": 1.8}
    ]}
  ]
}
